Reference: PubChem BioAssay AID1768 (National Center for Advancing Translational Sciences (NCATS), 2009)
About 620 (0.23%) of roughly 270,000 compounds were called active. This list was built around the results that the source calls inconclusive (neither active nor inactive); the mix of calls is not that of the screen. Calls come from the whole dose curve; as a rule, active = well fitted inhibition curve with a large enough effect in the polarisation, with a control signal flat (not every such curve was filed as active); inconclusive = small, poorly fitted or top-dose-only effect, or effect the other way, or a change in a side signal; inactive = no such curve, though single readings can be large or run the other way; the % refers to the polarisation. Where the call is inconclusive, the potency comes from a doubtful curve fit. A note “side channel” means that the fit belongs to a control or component signal, not to the main read-out.

What follows are compounds tested against Menin (Homo sapiens) (UniProt O00255) (assay: qHTS Assay for Inhibitors Targeting the Menin-MLL Interaction in MLL Related Leukemias: Competition With Texas Red Labeled MLL-derived Mutant Peptide). Conditions: fluorescence polarization; series mostly up to 61.6 µM.
Text: qHTS Assay for Inhibitors Targeting the Menin-MLL Interaction in MLL Related Leukemias NIH Chemical Genomics Center [NCGC] NIH Molecular Libraries Probe Centers Network [MLPCN] MLPCN Grant: MH084875-01A1 Assay Submitter (PI): Jolanta Grembecka, Tomasz Cierpicki, University of Virginia Translocations of the MLL (Mixed Lineage Leukemia) gene are frequently found in human leukemias affecting both children and adults. Fusion of MLL to one of more than 60 genes results in generation of oncogenic proteins upregulating Hox genes, which are vital to blood cell development. Patients harboring fusion of the MLL gene suffer from aggressive leukemias and respond poorly to available therapies. All of the oncogenic fusion proteins have a preserved N-terminal fragment of MLL that has been identified to interact with menin. It has been recently discovered that association with menin is critical to the leukemogenic activity of the MLL fusion oncoproteins. Selective targeting of the menin-MLL interaction could provide an attractive therapeutic approach to develop novel drugs for MLL-related leukemias. Small molecules blocking the menin-MLL interaction should reverse the oncogenic potential of MLL fusion proteins. We have developed and optimized a fluorescence polarization-based assay for the identification of Menin-MLL inhibitors. The assay was run employing two different MLL-derived peptides. The present assay uses a 12 amino acid peptide labeled with fluorescein at its N-terminus. This peptide consists of the menin high affinity binding motif from MLL and is potently bound by menin. Another peptide with a mutated sequence, labeled with Texas Red, was used in parallel as a less stringent screen for inhibitors.
The Menin protein, the MLL-wild type (w.t.) derived peptide (N-terminal 12 amino acids), the MLL-derived peptide labeled with Texas Red and the MLL-w.t. peptide labeled with Fluorescein were kindly supplied by laboratory of Dr. Jolanta Grembecka, University of Virginia. All protein and peptide solutions were stored in single use aliquots at -80C. The Eu3+ Cyrptate-conjugated mouse monoclonal antibody anti-6 Histidine (Eu3+-AB) and the Streptavidin-XL665 conjugate (XL665) were purchased from Cisbio International (Bedford, MA). All antibody and XL665 conjugate solution stocks were stored in single use aliquots at -20C. The Buffer components for all assays were purchased from Sigma-Aldrich (St. Louis, MO) and Invitrogen (Carlsbad, CA). FP Assay Reagents: 1. FP reaction buffer: 50 mM Tris-HCl pH 7.5, 50 mM NaCl, 1mM DTT. Before use, 0.05% BSA is added. 2. Menin protein, MLL-w.t. labeled with fluorescein, MLL-mutant peptide labeled with texas red. Stored in singe use aliquots at -80C. 3. MLL-w.t. unlabeled peptide as positive control: 10 uM final in FP buffer. FP Assay Procedure: 1. Prepare Menin at 200 nM, MLL-w.t.-fluorescein at 25 nM, and MLL-mutant-texas red at 50 nM mixture in FP buffer. 2. Prepare Menin at 200 nM, MLL-w.t.-fluorescein at 25 nM, MLL-mutant-texas red at 50 nM, and 10 uM MLL-w.t. unlabeled mixture in FP buffer. 3. Prepare MLL-w.t.-fluorescein at 25 nM and MLL-mutant-texas red at 50 nM mixture in FP buffer. 3. Dispense 4 ul per well of reagent in step 1 in columns 2, 4 - 48 in a black 1536 well plate, dispense 4 ul per well of reagents from steps 2 and 3 in columns 1 and 3 respectively. Incubate plate at ambient for 15 minutes. 4. Transfer 23 nl per well of compound to plate and incubate at ambient for 1 hr. 5. Read fluorescence polarization for each label using the PerkinElmer Envision. Envision protocol for fluorescein: FITC FP Dual Enh Mirror, Excitation filter 480, Emission filter (1) P-pol 535, Emission filter (2) S-pol 535 Envision protocol for texas red: FP Dual Enh Mirror, Excitation filter 555, Emission filter (1) P-pol 632, Emission filter (2) S-pol 632
Potency is the fitted concentration of half-maximal effect; tags give direction and shape of the fitted curve or compound fluorescence and quenching.

Sequence of UniProt O00255 (O00255 whole entry, looked up, the tested form may be a part): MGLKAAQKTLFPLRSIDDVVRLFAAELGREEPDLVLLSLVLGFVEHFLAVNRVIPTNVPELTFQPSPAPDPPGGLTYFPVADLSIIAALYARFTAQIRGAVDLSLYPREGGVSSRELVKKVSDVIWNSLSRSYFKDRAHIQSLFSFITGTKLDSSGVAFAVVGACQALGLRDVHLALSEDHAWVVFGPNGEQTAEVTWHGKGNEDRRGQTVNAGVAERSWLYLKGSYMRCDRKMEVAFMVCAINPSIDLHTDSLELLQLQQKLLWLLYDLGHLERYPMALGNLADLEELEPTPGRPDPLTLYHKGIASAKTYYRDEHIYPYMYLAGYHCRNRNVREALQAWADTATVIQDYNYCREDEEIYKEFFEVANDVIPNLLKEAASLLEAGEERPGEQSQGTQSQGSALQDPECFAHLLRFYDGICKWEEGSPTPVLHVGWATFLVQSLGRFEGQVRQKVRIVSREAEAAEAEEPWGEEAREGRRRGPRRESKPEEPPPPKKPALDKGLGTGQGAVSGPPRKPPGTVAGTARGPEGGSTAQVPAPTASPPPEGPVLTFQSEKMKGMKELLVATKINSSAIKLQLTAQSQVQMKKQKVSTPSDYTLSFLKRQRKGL

Potency, inconclusive:
O=C(C1CCCN(S(=O)(=O)c2cccs2)C1)N1CCN(C2CCCCC2)CC1 (stereo not given) 25.1 µM [inhibitor, single point]
O=C1C(=O)N(Cc2cccnc2)C(c2ccc(Br)cc2)/C1=C(\O)c1ccc2c(c1)OCCO2 (stereo not given) 14.1 µM [quencher, side channel, partial curve]
COc1ccccc1N1CCN(CC(C)N(C(=O)C2CCCCC2)c2ccccn2)CC1 (stereo not given) 11.2 µM [inhibitor, partial curve]
C#CCCOC(=O)Nc1ccccc1 1.78 µM [inhibitor, full curve, poor fit]
CC1CN(C(=O)c2ccc(CNS(=O)(=O)c3cccc(Cl)c3)cc2)CC(C)O1 (stereo not given) 28.2 µM [fluorescent, side channel, single point]
O=C(N/N=C\c1c(O)ccc2ccccc12)c1ccc(O)cc1 17.8 µM [quencher, partial curve]
COc1ccc(Br)cc1CNC(=O)Cc1c(C(=O)O)[nH]c2ccc(Cl)cc12 25.1 µM [quencher, side channel, single point]
c1ccc(SCCN2CCN(c3ccccc3)CC2)cc1 28.2 µM [fluorescent, side channel, partial curve, poor fit]
Cc1cc(C)c2oc(=O)cc(CN3CCN(Cc4ccccc4)CC3)c2c1 14.1 µM [fluorescent, side channel, partial curve]
COc1ccccc1CN(C(=O)Cc1cccs1)C(C(=O)NC1CCCC1)c1ccncc1 (stereo not given) 0.708 µM [inhibitor, full curve]
Cc1ccc2cc(C)c3nnc(SCC(=O)Nc4nc5c(s4)CCCC5)n3c2c1 3.16 µM [fluorescent, side channel, full curve]
CCCCCCCn1c(=N)n(CC(=O)c2ccco2)c2ccccc21 17.8 µM [fluorescent, side channel, partial curve]
C#Cc1ccc([C@H]2C=C(C(=O)N3CCN(Cc4ccc5c(c4)OCO5)CC3)O[C@@H](OCC)[C@@H]2CCCO)cc1 1.58 µM [inhibitor, full curve]
Cc1cc(=O)[nH]c(N/N=C/c2c(O)n(-c3ccccc3)c(=O)c3ccccc23)n1 39.8 µM [quencher, side channel, single point]
Cc1ccc(S(=O)(=O)Oc2ccc(C(c3c(C)[nH][nH]c3=O)c3c(C)[nH][nH]c3=O)cc2)cc1 28.2 µM [quencher, side channel, single point]
